# Test results reported in the supplement of paper PMC8728848.
# The list shows a part of the results.
# B1: OVGAL11 (Ovis aries), AAF64320 (protein)
# chain: MDSLPNPYLQSVSLTVCYMVKIKANLLSAFGKNPELQVDFGTGTGQGGNIPFRFWYCDGMVVMNTFTDGSWQKEEKVLTDAFVPGQPFELQFLVLEKEYQVFVKNKPICQFAHRLPLQSVKMLDVRGDIVLTSVDTL
# Legend:
# Assay in all cases: glycan array binding signal (z-score within array); higher = stronger binding
# Details in all cases: glycan notation: IUPAC condensed, linker removed
# [1] = target: Fuc(a1-2)Gal
# How it was run: (§1)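 Negative Z-scores can be read as non-binding. The Z-score is calculated within each array and then averaged across arrays of one protein sequence at different concentrations or buffers and across linkers. Arrays, 3228 in all, were curated from the Consortium for Functional Glycomics database and kept only where the protein sequence was available.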
# [2] = target: Fuc(a1-2)Gal(b1-3)GalNAc
# How it was run: as §1
# [3] = target: Fuc(a1-2)Gal(b1-3)GalNAc(a1-3)[Fuc(a1-2)]Gal(b1-4)Glc
# How it was run: as §1
# [4] = target: Fuc(a1-2)Gal(b1-3)GalNAc(a1-3)[Fuc(a1-2)]Gal(b1-4)GlcNAc
# How it was run: as §1
# [5] = target: Fuc(a1-2)Gal(b1-3)GalNAc(b1-3)Gal
# How it was run: as §1
# [6] = target: Fuc(a1-2)Gal(b1-3)GalNAc(b1-3)Gal(a1-4)Gal(b1-4)Glc
# How it was run: as §1
# [7] = target: Fuc(a1-2)Gal(b1-3)GalNAc(b1-3)Gal(b1-4)Glc
# How it was run: as §1
# [8] = target: Fuc(a1-2)Gal(b1-3)GalNAc(b1-4)[Neu5Ac(a2-3)]Gal(b1-4)Glc
# How it was run: as §1
# [9] = target: Fuc(a1-2)Gal(b1-3)GlcNAc
# How it was run: as §1
# [10] = target: Fuc(a1-2)Gal(b1-3)GlcNAc(b1-2)Man(a1-3)[Fuc(a1-2)Gal(b1-3)GlcNAc(b1-2)Man(a1-6)]Man(b1-4)GlcNAc(b1-4)GlcNAc
# How it was run: as §1
# [11] = target: Fuc(a1-2)Gal(b1-3)GlcNAc(b1-2)Man(a1-3)[Fuc(a1-2)Gal(b1-3)GlcNAc(b1-2)Man(a1-6)]Man(b1-4)GlcNAc(b1-4)[Fuc(a1-6)]GlcNAc
# How it was run: as §1
# [12] = target: Fuc(a1-2)Gal(b1-3)GlcNAc(b1-3)Gal(b1-4)Glc
# How it was run: as §1
# [13] = target: Fuc(a1-2)Gal(b1-3)GlcNAc(b1-3)GalNAc
# How it was run: as §1
# [14] = target: Fuc(a1-2)Gal(b1-3)GlcNAc(b1-3)[Fuc(a1-2)Gal(b1-3)GlcNAc(b1-6)]GalNAc
# How it was run: as §1
# [15] = target: Fuc(a1-2)Gal(b1-3)GlcNAc(b1-3)[Gal(b1-4)GlcNAc(b1-6)]Gal(b1-4)Glc
# How it was run: as §1
# [16] = target: Fuc(a1-2)Gal(b1-3)GlcNAc(b1-3)[Neu5Ac(a2-6)Gal(b1-4)GlcNAc(b1-6)]Gal(b1-4)Glc
# How it was run: as §1
# [17] = target: Fuc(a1-2)Gal(b1-3)GlcNAc6S
# How it was run: as §1
# [18] = target: Fuc(a1-2)Gal(b1-3)[Fuc(a1-4)]GlcNAc
# How it was run: as §1
# [19] = target: Fuc(a1-2)Gal(b1-3)[Fuc(a1-4)]GlcNAc(b1-2)Man(a1-3)[Fuc(a1-2)Gal(b1-3)[Fuc(a1-4)]GlcNAc(b1-2)Man(a1-3)]Man(b1-4)GlcNAc(b1-4)GlcNAc
# How it was run: as §1
# [20] = target: Fuc(a1-2)Gal(b1-3)[Fuc(a1-4)]GlcNAc(b1-2)Man(a1-3)[Fuc(a1-2)Gal(b1-3)[Fuc(a1-4)]GlcNAc(b1-2)Man(a1-6)]Man(b1-4)GlcNAc(b1-4)[Fuc(a1-6)]GlcNAc(b1-4)[Fuc(a1-6)]GlcNAc
# How it was run: as §1
# [21] = target: Fuc(a1-2)Gal(b1-3)[Fuc(a1-4)]GlcNAc(b1-3)[Fuc(a1-3)[Gal(b1-4)]GlcNAc(b1-6)]Gal(b1-4)Glc
# How it was run: as §1
# [22] = target: Fuc(a1-2)Gal(b1-3)[Fuc(a1-4)]GlcNAc(b1-3)[Gal(b1-4)GlcNAc(b1-6)]Gal(b1-4)Glc
# How it was run: as §1
# [23] = target: Fuc(a1-2)Gal(b1-4)Fuc(a1-3)]GlcNAc(b1-2)Man(a1-3)[Fuc(a1-2)Gal(b1-4)[Fuc(a1-3)]GlcNAc(b1-2)Man(a1-6)]Man(b1-4)GlcNAc(b1-4)GlcNAc
# How it was run: as §1
# [24] = target: Fuc(a1-2)Gal(b1-4)Glc
# How it was run: as §1
# [25] = target: Fuc(a1-2)Gal(b1-4)Glc6S
# How it was run: as §1
# [26] = target: Fuc(a1-2)Gal(b1-4)GlcNAc
# How it was run: as §1
# [27] = target: Fuc(a1-2)Gal(b1-4)GlcNAc(b1-2)Man
# How it was run: as §1
# [28] = target: Fuc(a1-2)Gal(b1-4)GlcNAc(b1-2)Man(a1-3)[Fuc(a1-2)Gal(b1-4)GlcNAc(b1-2)Man(a1-6)]Man(b1-4)GlcNAc(b1-4)GlcNAc
# How it was run: as §1
# [29] = target: Fuc(a1-2)Gal(b1-4)GlcNAc(b1-2)Man(a1-3)[Fuc(a1-2)Gal(b1-4)GlcNAc(b1-2)Man(a1-6)]Man(b1-4)GlcNAc(b1-4)[Fuc(a1-6)]GlcNAc
# How it was run: as §1
# [30] = target: Fuc(a1-2)Gal(b1-4)GlcNAc(b1-2)[Fuc(a1-2)Gal(b1-4)GlcNAc(b1-4)]Man(a1-3)[Fuc(a1-2)Gal(b1-4)GlcNAc(b1-2)Man(a1-6)]Man(b1-4)GlcNAc(b1-4)GlcNAc
# How it was run: as §1
# [31] = target: Fuc(a1-2)Gal(b1-4)GlcNAc(b1-3)Gal(b1-4)GlcNAc
# How it was run: as §1
# [32] = target: Fuc(a1-2)Gal(b1-4)GlcNAc(b1-3)Gal(b1-4)GlcNAc(b1-2)Man(a1-3)[Fuc(a1-2)Gal(b1-4)GlcNAc(b1-3)Gal(b1-4)GlcNAc(b1-2)Man(a1-6)]Man(b1-4)GlcNAc(b1-4)GlcNAc
# How it was run: as §1
# [33] = target: Fuc(a1-2)Gal(b1-4)GlcNAc(b1-3)Gal(b1-4)GlcNAc(b1-3)Gal(b1-4)GlcNAc
# How it was run: as §1
# [34] = target: Fuc(a1-2)Gal(b1-4)GlcNAc(b1-3)GalNAc
# How it was run: as §1
# [35] = target: Fuc(a1-2)Gal(b1-4)GlcNAc(b1-3)[Fuc(a1-2)Gal(b1-4)GlcNAc(b1-6)]GalNAc
# How it was run: as §1
# [36] = target: Fuc(a1-2)Gal(b1-4)GlcNAc(b1-3)[Fuc(a1-3)[Gal(b1-4)]GlcNAc(b1-6)]Gal(b1-4)Glc
# How it was run: as §1
# [37] = target: Fuc(a1-2)Gal(b1-4)GlcNAc(b1-6)GalNAc
# How it was run: as §1
binder,measurement,setting,value
B1,glycan array binding signal (z-score),[1],-0.071
same,glycan array binding signal (z-score),[2],-0.148
same,glycan array binding signal (z-score),[3],-0.061
same,glycan array binding signal (z-score),[4],-0.112
same,glycan array binding signal (z-score),[5],1.72
same,glycan array binding signal (z-score),[6],-0.119
same,glycan array binding signal (z-score),[7],-0.15
same,glycan array binding signal (z-score),[8],6.31
same,glycan array binding signal (z-score),[9],-0.096
same,glycan array binding signal (z-score),[10],-0.019
same,glycan array binding signal (z-score),[11],-0.051
same,glycan array binding signal (z-score),[12],-0.116
same,glycan array binding signal (z-score),[13],-0.109
same,glycan array binding signal (z-score),[14],-0.093
same,glycan array binding signal (z-score),[15],-0.07
same,glycan array binding signal (z-score),[16],-0.113
same,glycan array binding signal (z-score),[17],-0.083
same,glycan array binding signal (z-score),[18],-0.196
same,glycan array binding signal (z-score),[19],-0.071
same,glycan array binding signal (z-score),[20],-0.046
same,glycan array binding signal (z-score),[21],-0.121
same,glycan array binding signal (z-score),[22],-0.098
same,glycan array binding signal (z-score),[23],-0.036
same,glycan array binding signal (z-score),[24],-0.057
same,glycan array binding signal (z-score),[25],-0.11
same,glycan array binding signal (z-score),[26],-0.31
same,glycan array binding signal (z-score),[27],-0.102
same,glycan array binding signal (z-score),[28],0.022
same,glycan array binding signal (z-score),[29],-0.071
same,glycan array binding signal (z-score),[30],-0.059
same,glycan array binding signal (z-score),[31],-0.156
same,glycan array binding signal (z-score),[32],-0.036
same,glycan array binding signal (z-score),[33],-0.078
same,glycan array binding signal (z-score),[34],-0.092
same,glycan array binding signal (z-score),[35],-0.053
same,glycan array binding signal (z-score),[36],-0.109
same,glycan array binding signal (z-score),[37],-0.097
